Experimental data from EP0255485A2, “Transdermal compositions” (priority 1986, dated 1988).
Where a name gives a salt, the structure may show the parent alone. Read-outs that look alike come from different tables or passages of the source.

Design: key to flux: **: lower than HPLC sensitivity
Method: The amount of narcotic agent(s) in the skin diffusion samples studied was quantified using the following high pressure liquid chromatography (HPLC) assay. An HPLC method, which employed an isocratic mobile phase, a CN column and a UV detector, was used for the quantitation of all three narcotic compounds present in the skin diffusion samples. Over a concentration range of 3 to 50 ug/ml, the system is reproducible and linear. The retention times for morphine, oxymorphone, and hydromorphone are 8.3, 8.7 and 9.7 minutes, respectively, with this system.
A 2:8 mixture of acetonitrile and a solution of 0.05 M ammonium phosphate adjusted to pH 3 with phosphoric acid and diluted 1 to 16 with water.
Dupont Zorbax CN 4.6 mm (internal diameter) × 25 cm (length) column.
Spectra Physics SP4270 Computing Integrator
Isotonic Citrate/Phosphate Buffer PH 4.5
Male hairless mice, approximately 6-8 weeks old, were sacrificed by cervical dislocation. Square sections of skin (about 3-5 cm²) were excised from the animals with surgical scissors. The skin was mounted on Franz® diffusion cells with the dermal side facing the receiver compartment, and leached with saline for 2 hours before use. Temperature was maintained at 37°C during the experiment.

Row | Structure (SMILES) | flux | lag time | flux (Solvent System PG, approximate concentration 5 mg/ml)
1 | CC1CC(=O)NN=C1c1ccc(-n2ccnc2)cc1 (stereo not drawn) [Compound I Base] | 114.3 ug/cm²/h | about 3.5 hours | –
2 | CCC(NC(C)C)C(O)c1ccc(O)c2[nH]c(=O)ccc12 (stereo not drawn) [Procaterol Hydrochloride] | – | – | **
